Among the data in PubChem BioAssay AID1240 (Sanford-Burnham Center for Chemical Genomics, 2008) are displacement values, retold here.

The campaign covered roughly 50,000 compounds. About 800 (1.6%) showed an effect of 50% or more. The list shows a part of the results.

In this test the target is Bcl-2-like protein 10 (Homo sapiens) (UniProt Q9HD36). The test can be described thus: Phenotype converters, Bcl-B/TR3 peptide binding displacement, primary biochemical FP (AID 1240).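 Note: 0% = Bcl-B with tracer peptide and DMSO and 100% = tracer peptide lacking Bcl-B.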 Conditions: GST-Bcl-B / FITC-TR3 peptide fluorescence polarization; stronger effect = higher value; compound at 3.75 mg/L.
UniProt Q9HD36, sequence (Q9HD36 whole entry, looked up): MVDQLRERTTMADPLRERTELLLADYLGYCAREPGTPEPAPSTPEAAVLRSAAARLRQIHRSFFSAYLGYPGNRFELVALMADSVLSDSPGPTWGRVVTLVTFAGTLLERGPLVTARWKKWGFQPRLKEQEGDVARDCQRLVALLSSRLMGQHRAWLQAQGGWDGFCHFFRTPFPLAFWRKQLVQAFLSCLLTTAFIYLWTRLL
Regarding `O=C(/C=C/c1ccccc1)c1cccc(N2C(=O)C3C4C=CC(C4)C3C2=O)c1` (configuration not stated), the displacement amounted to 10.2%.

On to `C=C(C)COc1ccccc1/C=C1\N=C(c2cccs2)OC1=O`, for which the displacement is 0.7%.

For the compound `O=C1NC(=O)N(c2ccccc2)C(=O)/C1=C\c1ccccc1OCc1ccccc1F`, the displacement came out at 15.5%.

As to `Cc1cc(C)n(C2CC(=O)N(c3ccccc3)C2=O)n1` (configuration not stated), the displacement was determined as 0.8%.

On to `COc1cccc(CN2CCN(Cc3ccncc3)CC2)c1`, for which the displacement was -19.8%.

As for `Clc1ccc(N2CCN(/N=C\C=C\c3ccccc3)CC2)cc1`, the displacement is -4.7%.

As to `CC12CCC3C(CCC4CCCCC43C)C1CC/C2=N\O` (configuration not stated), the displacement was -6%.

As to `C=CCNC(=O)C1CC1(c1ccc(C)cc1)c1ccc(C)cc1` (configuration not stated), the displacement was -1.2%.

As to `CCC(=O)NC(=Nc1nc(OC)c2cc(C)ccc2n1)NC(=O)CC`, the displacement stood at 0.4%.

Consider `CC1=C(C(=O)Nc2ccccc2C)C(c2ccccc2Cl)C(C#N)=C(SCC(N)=O)N1` (configuration not stated), for which the displacement is -7.4%.

Consider `COc1cccc(OCCOc2ccccc2/C=C2/SC(=S)N(Cc3ccccc3)C2=O)c1`, for which the displacement is -6.7%.

For `O=C(NC(=S)Nc1cccc(C(F)(F)F)c1)c1ccco1`, the displacement was determined as 6.8%.

Turning to `NS(=O)(=O)c1ccc2c(c1)C(=O)c1cc(S(N)(=O)=O)ccc1-2`, the displacement was -5.7%.

`O=C(N=Nc1c(O)[nH]c2ccccc12)C12CC3CC(CC(C3)C1)C2`: the displacement is -11.3%.

With `CC(=N/O)/C(C)=N\NS(=O)(=O)c1ccc(C)cc1`, the displacement came to 15%.

Regarding `CN(C)/C=C1\C=C2C(=O)c3ccccc3N2C1=O`, the displacement amounted to 162%.

On to `CC1=C(C(=O)OC(C)C)C(c2ccc(Cl)c(Cl)c2)N2C(=O)CCSC2=N1` (configuration not stated), for which the displacement came to 15.3%.

Take `O=C1N=c2ccc(Br)cc2=C1c1[nH]c(=O)[nH]c1O`: the displacement was 4.8%.

Turning to `CN(C)CCNc1ccc(Cl)cc1[N+](=O)[O-]`, the displacement was 13.5%.

Regarding `COc1cc(/C=C2/SC(=S)NC2=O)c([N+](=O)[O-])cc1OC`, the displacement is 35.7%.

For `CCOC(=O)C(=O)C1C(=O)C(=O)C(C)C1=O` (configuration not stated), the displacement came out at 14.6%.

`CN(C)C(=O)COc1ccc2c3c(c(=O)oc2c1)CCCC3`: the displacement is -24.9%.

For the compound `Cc1nc2ccccc2n1CC(O)COc1ccc(I)cc1` (configuration not stated), the displacement was -18.5%.

As for `Cc1cc(C)nc(SCC(=O)NCCc2ccccc2)n1`, the displacement worked out at 8.2%.

For `CC(C)NC(=O)c1ccc(Cl)c([N+](=O)[O-])c1`, the displacement came to 7.7%.

Take `Cc1ccc(S(=O)(=O)N2CCCCC2)cc1[N+](=O)[O-]`: the displacement amounted to 0.3%.

Consider `O=C(Nc1ccc2c(c1)C(=O)c1ccccc1C2=O)c1cccnc1`, for which the displacement was -5.4%.

Consider `CC(C)(C)NC(=O)C1CCC(C)(C(=O)O)C1(C)C` (configuration not stated), for which the displacement is 9.8%.

Regarding `COc1ccccc1N(C(=O)C(Cl)(Cl)Cl)C1C=CS(=O)(=O)C1` (configuration not stated), the displacement is 1.4%.

Consider `Cc1ccc(OCC(=O)O/N=C(\N)c2ccc(Cl)cc2)cc1`, for which the displacement was -4%.

As for `COc1ccc(NS(=O)(=O)c2ccccc2[N+](=O)[O-])cc1Cl`, the displacement turned out to be 2.1%.

Consider `CCCOc1ccc(N2C(=O)CC(N(CCc3ccccc3)C(=S)Nc3ccccc3)C2=O)cc1` (configuration not stated), for which the displacement amounted to 2.2%.

Turning to `CCOC(=O)C1C(=O)CC(C)(O)C(C(=O)OCC)C1c1ccc2c(c1)OCO2` (configuration not stated), the displacement was 4.5%.

As for `COc1ccc(Oc2coc3cc(O)ccc3c2=O)cc1`, the displacement was found to be 25.3%.

On to `O=Cc1ccccc1OCc1ccc(I)cc1`, for which the displacement is -7.1%.

For the compound `COc1cccc(C(=O)Nc2ccc(I)cc2C)c1`, the displacement was 10.3%.

For the compound `COc1ccc(C2CC(=O)C3=C(C2)Nc2ccccc2NC3c2ccc(-c3ccccc3)cc2)cc1OC` (configuration not stated), the displacement is 16.7%.

As for `Cc1n[nH]c(C)c1CCCCCCOc1ccc(C(C)(C)C)cc1`, the displacement stood at 10%.

`COc1ccc(/C=N/NC(=O)Cc2cccn2C)cc1[N+](=O)[O-]`: the displacement is -7.9%.

Regarding `Cc1ccccc1NCN1C(=O)S/C(=C/C=C/c2ccccc2)C1=O`, the displacement turned out to be 1%.

For the compound `Cc1cc(OCC(O)CN2CCN(Cc3ccccc3)CC2)cc(C)c1Cl` (configuration not stated), the displacement was -4.5%.

Regarding `CCOc1cc(C(=O)Nc2cccc3ccccc23)cc(OCC)c1OCC`, the displacement turned out to be 15.8%.

Turning to `CCC(CO)Nc1nc2c(c(=O)n(C)c(=O)n2C)n1C` (configuration not stated), the displacement turned out to be 6.8%.

As to `CCOc1ccc2c(C)cc(=O)oc2c1I`, the displacement is -1.7%.

With `CCc1ccc(NC(=O)c2c(-c3ccccc3)noc2C)cc1`, the displacement was -6.1%.

Turning to `O=c1/c(=C/c2ccccc2Cl)sc2nnc(-c3ccccc3Cl)n12`, the displacement was -16.4%.

With `Cc1ccc(-c2csc(NC(=O)C(F)(F)F)n2)cc1C`, the displacement was -0.7%.

Consider `Cc1sc2nc(SC3C=CCCC3)[nH]c(=O)c2c1C` (configuration not stated), for which the displacement is -18.9%.

For `CCCc1cc(=O)oc2cc(OCC(=O)C(C)(C)C)ccc12`, the displacement amounted to 6.2%.

For `N/C(=N\OC(=O)c1cccc(Br)c1)c1ccc([N+](=O)[O-])cc1`, the displacement was -2.2%.

Consider `Cc1ccccc1N=C1NC(=O)CS1`, for which the displacement was -2.8%.

Take `Cc1cc(/C=N/n2cnnc2)c(C)n1-c1ccc(Cl)cc1`: the displacement was 11.7%.

Take `N/C(=N/N=C/c1ccc2c(c1)OCO2)c1ccccn1`: the displacement is -7.7%.

Turning to `COC(=O)c1ccc(N2C(=O)C3C(C2=O)C2C=CC3C23CC3)cc1` (configuration not stated), the displacement turned out to be 17.1%.

`Cc1ccc(OCC(=O)O/N=C(\N)Cc2ccc([N+](=O)[O-])cc2)c(C)c1`: the displacement was determined as 5.9%.

For the compound `CCn1c2c(c3cc(OCC(C)C)ccc31)CCCC2=O`, the displacement worked out at 7%.

Turning to `COc1ccc(Br)cc1C(=O)Nc1cc2nn(-c3ccc(C)cc3)nc2cc1C`, the displacement was -6.9%.

For the compound `CCCC1=NN2C(=N)/C(=C/c3ccc(OCc4ccc(F)cc4)c(OCC)c3)C(=O)N=C2S1`, the displacement was -6.7%.

Consider `COc1cc(C)c(CNc2ccccc2)cc1C`, for which the displacement was 8.9%.

Regarding `O=C(NCCCN1CCOCC1)C(=O)Nc1cccc(Cl)c1Cl`, the displacement was 2.3%.

Consider `C/C(=N\NC(=O)c1cccc([N+](=O)[O-])c1)c1cccnc1`, for which the displacement stood at 6.5%.

With `COc1cc(C2Nc3ccccc3C(=O)N2c2ccc(Cl)cc2)ccc1O` (configuration not stated), the displacement amounted to 14.9%.

On to `COc1ccc(S(=O)(=O)N2CCCC2C(=O)O)cc1` (configuration not stated), for which the displacement is -6.8%.

Take `CCOC(=O)C(=CNc1ccccc1F)C(=O)OCC`: the displacement came to 6.6%.

For the compound `COc1ccc(/C=C2\C(=O)N(c3ccc(S(N)(=O)=O)cc3)N=C2C)cc1`, the displacement turned out to be 2.1%.

In the case of `O=C(O)COc1ccc(N2C(=O)C=CC2=O)cc1`, the displacement came out at 3.9%.

Consider `Cc1ccc(-c2ccc(OCC(=O)N3CCOCC3)cc2)cc1`, for which the displacement amounted to 4.4%.

With `CCOC(=O)c1c(C)oc2cc(Br)c(OCC(N)=O)cc12`, the displacement stood at 9.3%.

For the compound `O=C(Nc1cccc(NC(=O)c2ccc3ccccc3c2)c1)c1cccc(Cl)c1`, the displacement is -4.9%.

With `Cc1c(NC(=O)c2cccc(F)c2)c(=O)n(-c2ccccc2)n1C`, the displacement worked out at 6.1%.

`CCOc1cccc(N2C(=O)CC(SCC(=O)Nc3ccc(Cl)cc3)C2=O)c1` (configuration not stated): the displacement was -2.5%.

In the case of `CCN(CC)Cc1c(O)ccc2oc(C)c(C(=O)c3ccc(OC)cc3OC)c12`, the displacement is -9.2%.

For `N/C(=N/c1nc2ccccc2o1)NC(=O)Cc1ccccc1`, the displacement is -12.8%.

With `Cc1ccc(COc2cc3oc(=O)c4c(c3cc2Cl)CCC4)cc1`, the displacement amounted to 9.2%.

`O=[N+]([O-])c1cnc(N2CCN(Cc3ccccc3)CC2)c([N+](=O)[O-])c1`: the displacement was found to be 5.4%.

For `CCc1c(C)nc2ccc(OC)cc2c1SCC(=O)O`, the displacement is -15.5%.

In the case of `Cc1cc([N+](=O)[O-])ccc1-c1ccc(C(=O)Nc2cc(Cl)cc(Cl)c2)o1`, the displacement came to 12.3%.

On to `CCOc1ccc(Cl)cc1/C=C1/SC(=S)N(c2ccccc2)C1=O`, for which the displacement was 0.3%.

`CCCCCCOc1ccc(N2C(=O)CC(SC(N)=Nc3ccccc3)C2=O)cc1` (configuration not stated): the displacement is 8.7%.

In the case of `CCOc1cc(/C=N/n2cnnc2)ccc1OCCOc1ccc(C)cc1`, the displacement is 11.2%.

As for `CC(c1ccccc1)c1nnc(N)s1` (configuration not stated), the displacement is 6.6%.

Take `CCCCOc1ccc(C(=O)NCC(C)c2ccccc2)cc1` (configuration not stated): the displacement was -2.9%.

With `COc1cc(OC)cc(C(=O)N2CCN(C3CCC(c4ccccc4)CC3)CC2)c1` (configuration not stated), the displacement amounted to 5.3%.

On to `COc1ccccc1/C=C1/SC(=S)N(CCC(=O)N2c3ccccc3Sc3ccccc32)C1=O`, for which the displacement came to 9.4%.

On to `O=C1CSC2(C(=O)Nc3ccccc32)N1c1ccc(Cl)c(Cl)c1` (configuration not stated), for which the displacement turned out to be 9%.

In the case of `CCOP(=O)(CN1CCN(CP(=O)(OCC)OCC)CC1)OCC`, the displacement came out at 4.4%.

For the compound `Cc1ccc(C(=O)CSc2ccccc2C(=O)O)cc1`, the displacement amounted to 0%.

With `CC(/C=C1\SC(=S)N(C(Cc2ccccc2)C(=O)O)C1=O)=C\c1ccccc1` (configuration not stated), the displacement was 17.3%.

For the compound `O=C(N/N=C\c1ccccn1)c1c[nH]c2ccccc12`, the displacement was 3%.

`O=c1n(Cc2c(F)cccc2Cl)c2ccccc2n1Cc1c(F)cccc1Cl`: the displacement was determined as 15.9%.

For `Cc1cc(C)cc(N(CC(=O)Nc2ccc3c(c2)OCO3)S(=O)(=O)c2ccccc2)c1`, the displacement worked out at 1.8%.

As to `COc1ccc(/C=C(\NC(=O)c2ccc(Cl)cc2)C(=O)NCCCN2CCOCC2)cc1OC`, the displacement was 13.6%.

On to `CCN(CC)c1ccc(C(=O)Nc2ccc(Cl)c(Cl)c2)cc1`, for which the displacement was 9.6%.

As for `Cc1nc(N)sc1C(=O)N/N=C/c1cccc(O)c1`, the displacement is 6.3%.

`CCOCCOC(=O)C1=C(C)N(CC)C(=O)NC1c1ccc([N+](=O)[O-])cc1` (configuration not stated): the displacement turned out to be 4.6%.

As to `COc1ccc(N2C(=O)C(Cl)=C(NCc3ccccc3)C2=O)cc1`, the displacement was determined as 14.9%.

With `CCn1c2ccccc2c2cc(CN3CCN(C(=O)c4cccs4)CC3)ccc21`, the displacement was -8.5%.

For the compound `COc1ccc(N(CC(=O)NCc2ccncc2)S(=O)(=O)c2ccccc2[N+](=O)[O-])c(OC)c1`, the displacement is -21.7%.

Take `Cc1ccc(C(=O)c2cccc(N3C(=O)c4ccccc4C3=O)c2)cc1C`: the displacement is -5.2%.

For the compound `CC(=O)OCCCN1C(=O)c2ccc(S(=O)(=O)c3ccc4c(c3)C(=O)N(CCCOC(C)=O)C4=O)cc2C1=O`, the displacement was 10.4%.

For `Cc1ccc(C2CC(=O)Nc3c2cc(Br)c2ccccc32)s1` (configuration not stated), the displacement is -3.9%.

Regarding `O=C(N/N=C/c1ccc(O)cc1O)c1cnccn1`, the displacement is -15.8%.

Regarding `CCCCCOC(=O)C1=C(C)NC2=C(C(=O)CCC2)C1c1cccc(Cl)c1Cl` (configuration not stated), the displacement was determined as 13.3%.

As to `N/C(=N/OCc1cccc([N+](=O)[O-])c1)c1nonc1N`, the displacement is 3%.

In the case of `COc1ccccc1OCc1ccoc1C(=O)O`, the displacement was found to be 7.5%.

As to `CCOCCOC(=O)C(C)Sc1n[nH]c(=O)[nH]c1=O` (configuration not stated), the displacement turned out to be 1%.

Regarding `COc1ccc(NC(=O)c2ccc(N(C)C)cc2)cc1`, the displacement came to 3.7%.

Take `O=C(CCCN1C(=O)c2cccc3cccc(c23)C1=O)N1CCCCC1`: the displacement was -3.3%.

For `COc1ccc(C(=O)c2c(C)oc3ccc(O)cc23)cc1OC`, the displacement is 7.3%.

With `O=C(Nc1ccncc1)c1cc2c(ccc3ccccc32)oc1=O`, the displacement came to 9.6%.

For the compound `CCOC(=O)C1=C(O)CSC1=Nc1ccc(F)cc1`, the displacement is -8.1%.

Take `Cc1cc(/C=N/N2C(=O)c3ccccc3C2=O)c(C)n1-c1ccccc1`: the displacement amounted to 11.4%.
